{
  "source": "PubChem BioAssay AID686978",
  "about": "(National Center for Advancing Translational Sciences (NCATS), 2013)",
  "note": "The whole screen tested about 420,000 compounds, of which about 64,000 (15%) were called active. Inconclusive results, whose numbers are uncertain, are shown with a selection of clear calls. Calls follow the shape of the dose curve; as a rule, active = well fitted inhibition curve with a large enough effect; inconclusive = small, poorly fitted or top-dose-only effect; inactive = flat fitted curve, though single readings scatter. Potencies of inconclusive entries are left out as doubtful fits. % is scaled to controls: 0 for no effect and ±100 for the full control effect; potency is read from the fitted curve at half-maximal effect; tags tell the direction and shape of the fitted curve.",
  "data": [
    {"assay": "qHTS for Inhibitors of human tyrosyl-DNA phosphodiesterase 1 (TDP1): qHTS in cells in absence of CPT; also: nearly all actives have a fitted effect of over 55% in size", "conditions": "DT40 Tdp1-/- hTDP1 cells, no CPT, ATP luminescence, 48 h; activity change, negative = growth inhibition: at 46.2 µM (top of the series) unless noted", "outline": "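Chicken DT40 Tdp1-/- cells complemented with human TDP1, screened without camptothecin (DMSO vehicle only), 400 cells/well. Compounds pin-transferred, cells incubated at 37 °C for at least 48 hr. Growth read as ATP-dependent luminescence (CellTiter-Glo, 30 min at RT).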", "values": [
      {"smiles": "Cc1ccccc1OCC(=O)Nc1nnc(COc2ccccc2)s1", "activity change, negative = growth inhibition": "inconclusive: -30.6% [inhibitor]"},
      {"smiles": "COc1ccc(CNC(=O)COC(=O)Cc2ccc(Br)cc2)cc1", "activity change, negative = growth inhibition": "inactive: -4.28%"},
      {"smiles": "Cc1ccc2oc(=O)c3cnn(CC(=O)NC4CCN(Cc5ccccc5)CC4)c3c2c1", "Potency": "active: 20.6 µM"},
      {"smiles": "Fc1ccc(CSc2ccc3nnc(-c4cccnc4)n3n2)cc1", "Potency": "active: 16.4 µM"},
      {"smiles": "O=C(O)CSc1ncnc2sc(-c3ccccc3)cc12", "activity change, negative = growth inhibition": "inactive: -4.42%"},
      {"smiles": "Cc1ccccc1CN1C[C@@H]2C[C@@H](c3cn[nH]c3-c3ccccc3)N3CCC[C@@]23C1=O", "Potency": "inconclusive [inhibitor, single point]"},
      {"smiles": "CCCOc1ccc(C(=O)Nc2cc3c(cc2N2CCCCC2)n(C)c(=O)n3C)cc1", "activity change, negative = growth inhibition": "inactive: -4.93%"},
      {"smiles": "O=C(Nc1ccc2c(c1)OCCO2)c1cccc(Cl)c1", "Potency": "inconclusive [inhibitor, single point]"},
      {"smiles": "CCC(=O)Oc1ccc(C(=O)Nc2ccc3c(c2)C(=O)N(C2CCCCC2)C3=O)cc1", "Potency": "active: 14.6 µM"},
      {"smiles": "O=C(COc1cccc(C(F)(F)F)c1)Nc1ccc(S(=O)(=O)N2CCCC2)cc1", "Potency": "inconclusive [inhibitor, single point]"},
      {"smiles": "COCCn1c(C)cc(C(=O)COC(=O)c2cccnc2SC)c1C", "Potency": "active: 16.4 µM"},
      {"smiles": "COc1ccc(-c2nc3sc(CCNS(=O)(=O)c4ccccc4)c(C)n3n2)cc1", "activity change, negative = growth inhibition": "inactive: -20%"},
      {"smiles": "CC#C[C@@H](CC)c1ccc2ccn(C)c2c1", "Potency": "inconclusive [inhibitor, single point]"},
      {"smiles": "O=C(NCC1CCN(Cc2ccccc2F)CC1)Nc1ccc(F)c(Cl)c1", "Potency": "inconclusive [inhibitor, single point]"},
      {"smiles": "CN=C1S/C(=C\\c2cccc(Cl)c2Cl)C(=O)N1C", "activity change, negative = growth inhibition": "inactive: -21.5%"},
      {"smiles": "CSc1nc(O)c(N=Nc2ccc(F)cc2F)c(=O)[nH]1", "Potency": "inconclusive [inhibitor, partial curve]"},
      {"smiles": "c1ccc(-c2cnnc3ccccc23)cc1", "activity change, negative = growth inhibition": "inconclusive: -38.5% [inhibitor]"},
      {"smiles": "C/C(CC(=O)Nc1ccc(N(C)C)cc1)=N\\NC(=O)c1cnccn1", "activity change, negative = growth inhibition": "inconclusive: -18.6% [inhibitor]"},
      {"smiles": "Cc1ccc(S(=O)(=O)Cc2nc(-c3ccc(C(=O)NCCCOC(C)C)cc3)oc2C)cc1", "Potency": "inconclusive [inhibitor, partial curve]"},
      {"smiles": "CCCCCCCN(CC)CCCC(O)c1ccc(NS(C)(=O)=O)cc1", "note": "(configuration not stated)", "activity change, negative = growth inhibition": "inactive: -25.5%"},
      {"smiles": "Cc1ccc2ncc3c(-c4ccc(F)cc4)nn(CC(=O)Nc4ccccc4C)c3c2c1", "activity change, negative = growth inhibition": "inactive: 6.83%"},
      {"smiles": "CC(C)Cc1nnc(NC(=O)CN2C(=O)NC3(CCCC3)C2=O)s1", "activity change, negative = growth inhibition": "inactive: -15%"}
    ]}
  ]
}
